# Assay results reported in PubChem BioAssay AID1454 (National Center for Advancing Translational Sciences (NCATS), 2008).
# Among all 130,000 compounds or so, about 550 (0.42%) were called active. The inconclusive results got no clear call from the source; some entries with a clear call stand among them for comparison. The call rests on the fitted dose curve; in most records, active means well fitted inhibition curve with a large enough effect; inconclusive means small, poorly fitted or top-dose-only effect, or effect the other way; inactive means flat fitted curve, though single readings scatter. No potency is given beside an inconclusive call; the fits are too rough.
# Test: qHTS Assay for Inhibitors of the ERK Signaling Pathway using a Homogeneous Screening Assay; Stimulation with EGF; further: nearly all actives have a fitted effect of over 55% in size;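 on activity change, negative = inhibition: plate controls were stimulated vehicle wells for no effect and unstimulated vehicle basal for full effect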
# Conditions: HEK293-V1b, EGF-stimulated phospho-ERK AlphaScreen; activity change, negative = inhibition: at the top concentration
# Excerpt: NIH Chemical Genomics Center [NCGC]
# NIH Molecular Libraries Screening Centers Network [MLSCN]
# Assay Submitter (PI): Dr. Wei Zheng, NCGC/NIH
# The Ras/extracellular-signal-regulated kinase (ERK) mitogen activated protein (MAP) kinase signaling pathway (ERK1/2 cascade) plays a key role in transmitting signals from the cell surface to the nucleus (Nishida and Gotoh 1993; Chang and Karin, 2001). The cascade is initiated by the small G-protein Ras, which recruits Raf from the cytosol, where activation occurs. Alternatively, this pathway can be activated by elevating intracellular cAMP, or by activation of a receptor tyrosine kinase as epidermal growth factor receptor.
# Activation of the ERK pathway is essential in increased cell division and cell survival. Sustained and constitutive activation of the ERK pathway, however, has been linked to uncontrolled cell proliferation, increased cell survival, and tumor progression. Thus, the ERK has been as an attractive target for cancer chemotherapy in the past few years (Sebolt-Leopold and Herrera, 2004). Given its physiological and pathological importance, assessment of ERK phosphorylation has been broadly performed in both basic research and drug discovery. Most assays for the measurement of ERK phosphorylation use the antibody-based detection methods, such as western blot and ELISA. These assays require multiple reagent additions with cell wash steps and are not suitable for high throughout screening.
# The current cell-based ERK phosphorylation assay was performed using AlphaScreen platform. AlphaScreen is a two bead-based proximity-dependent chemical energy transfer luminescent assay platform. The assay reagents (ERK SureFire(TM) kit) were supplied from TGR BioSciences (Australia). In the presence of specific antibodies, phosphorylated ERK will bring "donor" and "acceptor" beads to a proximity range (<200 nm), and subsequently lead a chemical luminescent reaction upon exciting donor beads with 680 nm laser. To exclude the assay-related false positives, we used a biotinylated rabbit IgG to perform counter-screen. The biotinylated antibody mimics the phosphorylated ERK1/2 for bringing streptavidin coated beads and protein-A coated beads to a proximity range for the AlphaScreen detection.
# NCGC Assay Protocol Summary:
# HEK293 cells stably expressing type-1 vasopressin receptor (V1b) were maintained in DMEM medium (Invitrogen, Carlsbad, CA) at 37C under a humidified atmosphere containing 5% CO2 and 95% air. The medium contained 10% FBS, 2 mM L-glutamine, non-essential amino acid, pyruvate and 50 U/ml penicillin and 50 ug/ml streptomycin (Invitrogen). The aliquots of frozen cells were stored at -135C and used for the compound screening. All compounds were screened as titrations from 0.6 nM to 46 uM final concentration. Epidermal growth factor (EGF) was used to stimulate the ERK phosphorylation pathway. The ERK phosphorylation in cells was determined using an AlphaScreen assay kit provided by […]. Data were normalized to the controls for basal activity (DMSO only) and 100% activation (25 nM EGF). AC50 values were determined from concentration-response data modeled with the standard Hill equation.
# (1) Seed 4 ul/well of resuspended frozen HEK293 cells containing 2000 cells in white 1536-well plates for overnight with 1% FBS at 37C under a humidified atmosphere containing 5% CO2 and 95% air.
# (2) Add 23 nL compounds in DMSO solution. The final titration was 0.6 nM to 46 uM.
# (3) Incubate at 37C for 30 min.
# (4) Dispense 0.5uL EGF (25 nM in final)
# (5) Incubate at 37C for 5 min.
# (6) Dispense 0.5uL of 1:2 diluted 5x lysis buffer.
# (7) Incubate at 37C for 10 min.
# (8) Dispense 1.5uL of mixture of activation buffer and reaction buffer with AlphaScreen beads (streptavidin donor beads and protein-A acceptor beads, 10 ng/well for each).
# (9) Incubate at room temperature for 5 hr.
# (10) Detect the assay plate in an EnVision plate reader (PerkinElmer) using the AlphaScreen detection mode.
# […]
# Potency means the concentration at half of the fitted maximal effect; tags describe the fitted curve by direction and shape.
Compound,Potency,"activity change, negative = inhibition"
Oc1ccc(/C=N/n2cc(-c3ccccc3)[nH]c2=S)cc1,"inconclusive [inhibitor, partial curve, poor fit]",–
O=C(Nc1cccc(F)c1)N1CC[C@@]2(CCCN(C(=O)c3cccc(F)c3)C2)C1,–,inactive: 3.71%
CCN(CC)CCN(C)C(=O)CCc1nnc(-c2ccc(C)s2)o1,"inconclusive [activator, partial curve, poor fit]",–
N#Cc1ccc(Oc2ccc(-c3cnc4ccccc4n3)cc2)cc1C#N,–,inactive: 1.23%
O=C(c1ccco1)N1CCC2(CC1)CN(c1cccc(-c3ccccc3)c1)C2,"inconclusive [inhibitor, single point]",–
COc1cccc(C(=O)/C=C/Nc2ccc(S(=O)(=O)Nc3cnc4ccccc4n3)cc2)c1,"inconclusive [inhibitor, single point]",–
c1nc(N2CCN(Cc3ccc4c(c3)OCO4)CC2)c2[nH]cnc2n1,–,inactive: 4.92%
CN(C)c1nc2c(Br)c(Br)c(Br)c(Br)c2[nH]1,–,inactive: 27.1%
CCOc1ccc(-c2nc(CN(Cc3ccccc3)C[C@@H]3CCC(=O)N3)c(C)o2)cc1,"inconclusive [inhibitor, partial curve, poor fit]",–
COc1ccc(CNc2cc(-c3ccccc3CN(C)C)ncn2)c(OC)c1,–,inactive: 10.3%
CC1(C)Cc2nc(-c3ccccc3)nc(SCC(O)CO)c2CO1 (stereo unspecified),"inconclusive [activator, full curve, poor fit]",–
CCN(CC)c1ccc(/C=N/NC(=O)c2cccc(S(=O)(=O)Nc3ccccc3OC)c2)cc1,"inconclusive [inhibitor, partial curve, poor fit]",–
CSc1nsc2nc(=O)c(/C=C3\C(C)=Nc4ccc(C)cc43)c(N)n12,"inconclusive [inhibitor, single point]",–
COc1ccc(OC)c(NC(=O)c2cnc(Nc3ccccc3OC)c3ccccc23)c1,"inconclusive [activator, partial curve]",–
COc1cc(OC)c(OC)cc1CN1CCCC(C(=O)c2sccc2C)C1 (stereo unspecified),"inconclusive [inhibitor, partial curve]",–
CCCCC[C@H](O)/C=C/[C@@H]1[C@@H](C/C=C\CCCC(=O)O)[C@H](O)C[C@H]1O,–,inactive: -4.47%
COc1ccccc1/C=C1\SC(=S)N(N2C(=O)CCCC2=O)C1=O,"inconclusive [inhibitor, single point]",–
CC(C)Cc1cc(C(=O)NCCc2ccccc2)no1,"inconclusive [activator, full curve, poor fit]",–
Cc1ccc(C)c(-n2cc(CNCCc3cnccn3)c(-c3ccccc3)n2)c1,"inconclusive [inhibitor, partial curve, poor fit]",–
COc1cc(NC(=O)CSc2cc(C)c3cc(C)cc(C)c3n2)c(C(=O)O)cc1OC,"inconclusive [inhibitor, partial curve]",–
CCOc1ccc(-c2n[nH]c(C)c2-c2ccccn2)c(O)c1,"inconclusive [inhibitor, single point]",–

Compound,Potency,"activity change, negative = inhibition"
O=C1/C(=C/c2ccc3c(c2)OCO3)CCC/C1=C\c1ccc2c(c1)OCO2,"inconclusive [inhibitor, partial curve]",–
CN(Cc1cccnc1)Cc1cn(Cc2ccccc2)nc1-c1ccc2c(c1)OCO2,"inconclusive [inhibitor, single point]",–
Cc1ccc([N+](=O)[O-])cc1NC(=O)Nc1cccc(F)c1,"inconclusive [inhibitor, single point]",–
CS(=O)(=O)N1CCC[C@@]2(CCN(Cc3ccc(C#N)cc3)C2)C1,–,inactive: -6.98%
COc1ccccc1/C=C/C=N\N1CCN(Cc2ccccc2Cl)CC1,active: 17.8 µM,–
Fc1cccc(Cl)c1CSc1ccc2nnc(-c3ccccn3)n2n1,"inconclusive [inhibitor, single point]",–
COC(=O)CCc1sc(NC2CCCCC2)nc1-c1ccc(OC)cc1,–,inactive: -4.34%
CC(=O)Nc1ccc(NC(=O)c2ccc(CSc3ccccc3)o2)cc1,"inconclusive [inhibitor, single point]",–
O=C(/C=C/c1ccc(O)c(O)c1)c1ccccc1O,"inconclusive [inhibitor, single point]",–
COc1cccc(/C=N/Nc2cc(-n3nc(C)cc3-c3ccccc3)ncn2)c1O,active: 8.91 µM,–
CCOC(=O)CNC(=O)O[C@@H]1C(=O)c2cc(OC)ccc2O[C@H]1c1ccc(OC)c(Br)c1,–,inactive: 0.971%
O=C(CN1c2ccccc2Sc2ccccc21)NNC(=O)Nc1ccc(Cl)c(Cl)c1,"inconclusive [inhibitor, full curve, poor fit]",–
CN(C)c1ncc2nc(-c3cccs3)c(=O)n(C3CC3)c2n1,"inconclusive [activator, partial curve]",–
O=C(NCc1ccccc1)C1=C[C@@H](c2csc3ccccc23)C[C@@H](OCCCCO)O1,"inconclusive [inhibitor, full curve, poor fit]",–
Cc1c(Nc2cc(Cl)c3nonc3c2[N+](=O)[O-])c(=O)n(-c2ccccc2)n1C,"inconclusive [inhibitor, single point]",–
COc1ccccc1C1CC(=O)n2c(nc(-c3ccccc3)c2-c2ccccc2)S1 (stereo unspecified),"inconclusive [inhibitor, partial curve]",–
COc1c(C(=O)Nc2ccc(Cc3ccncc3)cc2)ccc2ccccc12,"inconclusive [inhibitor, single point]",–
COCC(=O)N1CCC[C@@]2(CCN(Cc3nccs3)C2)C1,–,inactive: 1.39%
Cc1c(N2C(=O)/C(=C\c3ccc(N(C)C)cc3)N(C)C2=S)c(=O)n(-c2ccccc2)n1C,"inconclusive [inhibitor, partial curve]",–
CCOc1cc2c3c(c1)C(C)=CC(C)(C)N3C(=O)C2=O,"inconclusive [inhibitor, full curve, poor fit]",–
